From ChEMBL document CHEMBL4888484, “Replenishing the malaria drug discovery pipeline: Screening and hit evaluation of the MMV Hit Generation Library 1 (HGL1) against asexual blood stage Plasmodium falciparum ,using a nano luciferase reporter read-out” (2022)
About 540 (0.36%) of roughly 150,000 compounds showed an effect of 50% or more. This is one part of the list.

Test system: Plasmodium falciparum
Test: Primary screen in NF54 nanoGlo assay, in single point, at 2uM, 72h; a lower Z score goes with more inhibition
Assay type: functional, Erythrocyte
Settings: timepoint 72 hour

Row | SMILES | % Inhibition [%] | Z score
1 | CC[C@H](OC1CCCC1)C(=O)Nc1ccc(O)cc1C | -15 | 1.95
2 | COc1ccc(-c2nnc3c4ccccc4nc(N4CCCN(C(=O)OCc5ccccc5)CC4)n23)cc1 | -4 | 0.5
3 | CCCC(=O)N1CCCC1C(=O)OCC1CCN(c2ccccc2)C1 (configuration not stated) | -1 | 0.25
4 | FC(F)c1nnc2ccc(N3CCC[C@@H]4CCCC[C@@H]43)nn12 | 7 | -0.91
5 | CC1Cc2cn[nH]c2C(C(=O)Nc2ccc(CCN(C)C)cc2)C1 (configuration not stated) | -6 | 1
6 | CCc1noc(C)c1C(=O)N(C)C1CCN(c2ccccn2)CC1 | -18 | 3.34
7 | CN1c2cccnc2CN(C(=O)NC2CCCCC2)CC[C@H]1CO | -1 | 0.17
8 | CCNC(=O)N(CC(=O)N1CCc2sccc2[C@@H]1COc1ccccc1C)CC1CC1 | -3 | 0.44
9 | CC1(C)C[C@@H](c2noc(-c3ccc(N4CCCC4=O)cc3)n2)CCO1 | -4 | 0.69
10 | CCc1cc(N(C)Cc2ncccn2)ncn1 | -7 | 1.32
11 | NC(=O)c1ccn(-c2ccccc2NC(=O)[C@@H]2CC=CCC2)n1 | -9 | 2
12 | Clc1ccccc1CN1CCN(c2cncc3nncn23)CC1 | -2 | 0.31
13 | CN(c1cccnn1)S(=O)(=O)c1cnc2n1CCC2 | 3 | -0.5
14 | COc1cc(=O)n2c(c1C(=O)NCc1c(C)n[nH]c1C)CCCCC2 | -10 | 1.12
15 | Cc1cc(CC(=O)N(C)Cc2ccncc2)n[nH]1 | -17 | 1.84
16 | Cc1nc(C)c(C(=O)OCc2csc(-c3ccccc3)n2)s1 | -9 | 1.13
17 | Cn1nc([C@@H]2CCCO2)cc1NC(=O)NCC(F)(F)F | -12 | 1.13
18 | CC(=O)O/N=C(/c1ccc2c(c1)OCO2)N1CCOCC1 | -9 | 1.68
19 | COc1c(F)cccc1C(=O)Nc1ccc2c(c1)C[C@H](C)O2 | -3 | 0.56
20 | Cc1ccc(C2=C[C@@H](c3ccc(C)cc3)n3nnnc3N2CC(=O)Nc2cccc(F)c2)cc1 | -7 | 0.67
21 | CC1(C)C(=O)Nc2ccc(C(=O)N[C@H]3CCCn4ncnc43)cc21 | 1 | -0.21
22 | O=C(c1cnccn1)N1C[C@H]2CC[C@@H](C1)N(C(=O)CC1CCCC1)C2 | 3 | -0.57

Row | SMILES | % Inhibition [%] | Z score
23 | Cc1nsc(C(=O)NCc2ccc(CCO)cc2)n1 | 9 | -1.56
24 | O=C(COC(=O)c1ccc(-c2ccccc2)cc1)Nc1ccc2c(c1)OCO2 | -7 | 1.34
25 | CC(C)N(CC(=O)N(C)C(C)(C)C#N)Cc1cccc(Cl)c1 | 0 | -0.02
26 | CC(C)CCOc1ccc(CN(CC(C)(C)N(C)C)C(=O)NCC(F)(F)F)cc1 | -8 | 1.49
27 | Cc1cc(Cl)ccc1NC(=O)NCC(=O)N(C)C | -6 | 1.16
28 | CC(C)C1=NO[C@H](C(=O)NCc2ccc3[nH]cnc3c2)C1 | 14 | -1.64
29 | Cc1noc(C)c1CC(=O)N[C@H]1CC[C@H](Oc2cnccn2)CC1 | -10 | 1.15
30 | Cc1ccc(-c2ncn(C3CCCC3)c2-c2ccc(C(=O)NCc3ccccc3C)o2)cc1 | 2 | -0.29
31 | O=C1Nc2cc(C(=O)N3CCN(c4cccc(C(F)(F)F)c4)CC3)ccc2N2CCCC[C@@H]12 | -6 | 0.89
32 | Cc1nnc(CC(=O)N2CCC(Cc3cc(F)cc(F)c3)CC2)o1 | -7 | 0.9
33 | C[C@H]1CN(Cc2cccnc2)CCN1C(=O)c1ccnc(C2CCCC2)n1 | -7 | 0.94
34 | CN1CCCC[C@H](CC(=O)N2CCN(c3cccc(Cl)c3)CC2)C1=O | -2 | 0.29
35 | O=C1N(Cc2cccnc2)CCC[C@@]12CCN(c1nc(CO)cs1)C2 | -6 | 0.67
36 | CCN(Cc1ccccc1)c1ccc(NS(=O)(=O)c2ccccc2Cl)cc1C(=O)O | -11 | 1.09
37 | OCCN(Cc1cccnc1)c1nc(-c2ccsc2)nc2scc(-c3ccccc3)c12 | 0 | -0.06
38 | COc1ccc(Cl)cc1-c1cnsc1 | 1 | -0.16
39 | CCS(=O)(=O)NC(=O)c1ccnn1C(C)C | 13 | -1.69
40 | Cc1cc(NC(=O)c2cc(O)ncn2)sn1 | -7 | 1.14
41 | CCOC(=O)[C@@H]1CCc2sc(N)nc21 | -6 | 0.7
42 | c1ccc2oc(NC[C@H]3COCO3)nc2c1 | 10 | -1.1
43 | Cc1cnn(Cc2nnnn2-c2ccccc2)c(=O)c1 | -12 | 1.21
44 | CCC(N[C@@H]1C=C[C@H](CO)C1)c1nccn1C (some centres not stated) | -1 | 0.14

Row | SMILES | % Inhibition [%] | Z score
45 | CN(C)CCNC(=O)C1CCN(C(=O)c2cc3ccsc3n2Cc2ccc(Cl)cc2)CC1 | 0 | 0.02
46 | O=C(NCc1ccc(CO)c(F)c1)[C@@H]1CCCCO1 | -3 | 0.46
47 | CCC1Oc2cc(C(C)NC(=O)C3CC4C=CC3C4)ccc2NC1=O (configuration not stated) | 14 | -1.92
48 | O=S(=O)(N[C@H]1CCOC[C@@H]1O)c1ccc(F)c(Cl)c1 | -2 | 0.43
49 | CCc1ccc(-c2cc(-c3nc(N)sc3C)nc(N)c2C#N)o1 | -9 | 1.24
50 | CCN(CC(F)(F)F)C(=O)c1ccc(-c2cncn2C)cc1 | -19 | 2.89
51 | Cc1n[nH]c(C)c1NS(=O)(=O)c1cccc2cncc(Br)c12 | -4 | 0.51
52 | CC1=C[C@@H](CNS(=O)(=O)c2ccccc2)[C@H](C(C)C)C[C@H]1Cc1nc2ccncc2[nH]1 | -7 | 1.01
53 | O=C(N[C@H]1CO[C@@H](CN2CCC(F)(F)C2)[C@@H]1O)c1cccc(F)c1 | 29 | -3.24
54 | CC(C)(C)OC(=O)C1C[C@@H](N)[C@@H](n2cc(C(C)(C)C)nn2)C1 (some centres not stated) | -7 | 1.24
55 | Cc1cc(CN(C)C[C@H]2CC23CC3)no1 | -3 | 0.59
56 | O=C(Nc1ccnn1C1CCCC1)c1ccco1 | -5 | 1.02
57 | CCc1cccc(NC(=O)Cc2nc(-c3cccnc3)n[nH]2)c1 | -13 | 2.1
58 | CC(OC12CCCCC1C(c1ccccc1)C2(C#N)C#N)c1ccccc1 (configuration not stated) | -1 | 0.13
59 | COc1ncc(CN2CC[C@@]3(CCCN(Cc4ccc(F)c(F)c4)C3=O)C2)cn1 | -16 | 3
60 | CNC(=O)Cn1cnc(NS(=O)(=O)c2ccccc2Cl)n1 | 2 | -0.31
61 | Cc1sc(NC(=O)c2cc(-c3cccnc3)nc3ccc(Cl)cc23)c(C(=O)NCc2cccnc2)c1C | -3 | 0.41
62 | CCC[C@H](C)NC(=O)CN(CCO)C1CC1 | -7 | 0.86
63 | CC(C)C(=O)N1CCC[C@@H]1Cc1noc(-c2cnccn2)n1 | -2 | 0.29
64 | c1ccc(-c2nc3cccnc3nc2N2CCCCC2)cc1 | -5 | 0.66
65 | COCCn1ccnc1-c1nc2c([nH]1)c(C)nn2C(C)C | -5 | 0.66
66 | C[C@H]1C(=O)N(C)CCN1C(=O)c1coc(COc2ccc(F)cc2Cl)n1 | -14 | 2.31

Row | SMILES | % Inhibition [%] | Z score
67 | CC(C)c1nc(-c2nccn2CCN2CCOCC2)co1 | -10 | 0.92
68 | COC(C)c1cccc(NC(=O)N(C)CC(O)C(F)(F)F)c1 (configuration not stated) | -1 | 0.08
69 | CCn1nnc(C)c1CN1Cc2cn[nH]c2C[C@H](C)C1 | 2 | -0.39
70 | Cc1nn(CC(=O)NCc2cccnc2)c(=O)n1Cc1ccccc1 | -7 | 1.45
71 | O=C(Nc1ccc2c(c1)OCO2)C(C1CC=CCC1)N(Cc1ccc(Cl)cc1)C(=O)Cn1nnc2ccccc21 (configuration not stated) | -30 | 3.52
72 | Cc1cc(F)ccc1-n1cc(O)c(C(=O)N2CCC[C@H](N3CCCC3)CC2)n1 | -5 | 0.75
73 | CC(C)(C)CCN1CCn2c(nnc2[C@@H]2C[C@@H](O)CN2Cc2ccncc2)C1 | 1 | -0.17
74 | Cc1cccc([C@H](C)NS(=O)(=O)N2CCN(C)CC2)n1 | -2 | 0.29
75 | CCCn1c(C)cnc1[C@H]1CCN(C(=O)Nc2ccc3c(c2)OCCO3)C1 | -6 | 0.96
76 | O=C(N1CC2CCC(O)CC2C1)C1(c2cccnc2)CCCC1 (configuration not stated) | 9 | -1.24
77 | Cc1ccc2ncc(C(=O)OCc3cccc4cn[nH]c34)n2c1 | 29 | -3.77
78 | CC(CO)(CO)NCc1ccc(Cl)cc1Cl | -5 | 0.83
79 | OC1(Cc2ccccn2)CCN(Cc2nnnn2C2CC2)CC1 | -9 | 1.43
80 | Cc1cccc([C@H](CNC(=O)c2cccc(N3C(=O)CCS3(=O)=O)c2)N2CCOCC2)c1 | 5 | -0.98
81 | O=C(NCc1cccs1)N1CCC[C@H](Oc2cnccn2)C1 | -12 | 2.13
82 | O=C(C(O)C1CCC1)N1CCCC1CCO (configuration not stated) | -8 | 0.97
83 | CN(Cc1ncnn1C)c1ccc(Br)cc1C#N | -8 | 0.89
84 | COc1ccc([C@@H](C)NC(=O)N[C@@H]2CCCOC2)c(OC)c1 | -1 | 0.11
85 | O=C(Nc1cccc2c1OCCC2)[C@H]1CCn2ccnc2C1 | -12 | 2.28
86 | O=C(C[C@H]1CCOC1)N1CCN(CC2CCC2)CC1 | 5 | -0.61
